For 31 molecules, cytotoxicity call results are on record in the antibiotic and cytotoxicity screens of Wong et al. (2023).

Some of the results follow.

The assay relates to HSkMC (human skeletal muscle cells). The experiment in a line: cytotoxicity call (relative viability < 0.9). As to conditions: 10 µM.
`Cc1noc(C)c1NC(=O)N(C)C[C@H]1Oc2c(NC(=O)c3ccncc3)cccc2C(=O)N([C@@H](C)CO)C[C@H]1C`: the cytotoxicity call was “inactive”.
Then `CCO[C@H]1OC(C(=O)N2CCN(C)CC2)=C[C@@H](c2coc3ccccc3c2=O)[C@@H]1CCCOC(=O)NCCCCCC(=O)NO`, with “inactive”; and `CC(C)NC(=O)NCC[C@@H]1CC[C@@H](NC(=O)CN(C)C)[C@@H](CO)O1`, with “inactive”.
The value for `C[C@@H]1CN([C@H](C)CO)S(=O)(=O)c2ccc(-c3cccc(F)c3)cc2O[C@H]1CN(C)S(C)(=O)=O` was “inactive”; that for `C[C@H]1CCCCO[C@H](CN(C)C(=O)Nc2ccc(F)cc2)[C@@H](C)CN([C@@H](C)CO)C(=O)c2cc(NC(=O)CCCN(C)C)ccc2O1` was “inactive”.
Then `S=c1[nH]nc(C2CCCCC2)[nH]1`, with “inactive”; and `C[C@H](CO)N1C[C@H](C)[C@H](CN(C)S(=O)(=O)c2ccc(C#N)cc2)OCc2cnnn2CCCC1=O`, with “inactive”; and `Cc1noc(C)c1NC(=O)N(C)C[C@H]1Oc2c(NC(=O)c3cnccn3)cccc2C(=O)N([C@@H](C)CO)C[C@H]1C`, with “inactive”.
Regarding `C[C@@H]1CCCCO[C@@H](CN(C)Cc2ccc(C(F)(F)F)cc2)[C@H](C)CN([C@@H](C)CO)C(=O)c2cc(NC(=O)c3ccncc3)ccc2O1`, the cytotoxicity call was “inactive”.
The value for `C[C@@H](O)C#Cc1cnc2c(c1)C(=O)N([C@@H](C)CO)C[C@H](C)[C@H](CN(C)Cc1cncnc1)O2` was “inactive”; that for `O=S(=O)(NCC[C@@H]1CC[C@H](NS(=O)(=O)c2ccccc2Cl)[C@H](CO)O1)c1ccc(Cl)cc1` was “inactive”.
On to `O=C(C1=C[C@@H](c2ccc(Br)cc2)C[C@@H](OCc2ccc(CO)cc2)O1)N1CCCCCCC1`, for which the cytotoxicity call is “inactive”.
Then `C[C@@H]1CCCCO[C@H](CN(C)Cc2ccc(C(=O)O)cc2)[C@@H](C)CN([C@H](C)CO)C(=O)c2cc(NC(=O)c3ccccc3)ccc2O1`, with “inactive”.
Then `Nc1nonc1N1CCCCC1`, with “inactive”; and `CC(=O)N1CCN(c2ncnc3nc[nH]c23)CC1`, with “inactive”; and `C[C@H](CO)N1C[C@H](C)[C@H](CN(C)S(=O)(=O)c2cccs2)OCCCC[C@H](C)Oc2ccc(NC(=O)Cc3ccccc3)cc2C1=O`, with “inactive”.
The value for `C[C@@H]1CCCCO[C@@H](CN(C)C(=O)C2CCCCC2)[C@@H](C)CN([C@H](C)CO)C(=O)c2cc(NC(=O)Nc3ccc(C(F)(F)F)cc3)ccc2O1` was “inactive”; that for `CCOC(=O)CN1CCN(C=O)CC1` was “inactive”.
Consider `CNC(=O)CN1CCOC[C@@]2(C1)CN(C(=O)c1ccn[nH]1)CCO2`, for which the cytotoxicity call was “inactive”.
As to `C[C@@H]1C[C@H](C)CN(Cc2nc3c(c(=O)n(C)c(=O)n3C)n2CC(N)=O)C1`, the cytotoxicity call is “inactive”.
Then `COc1ccc(C#Cc2ccc3c(c2)[C@]2(C(=O)N3)[C@H](c3ccc(OCCO)cc3)N3[C@H](c4ccccc4)[C@H](c4ccccc4)OC(=O)[C@H]3[C@@H]2C(=O)N2CCc3cc(OC)c(OC)cc3C2)cc1`, with “inactive”; and `C[C@@H]1CCCCO[C@@H](CN(C)Cc2ccc(C(=O)O)cc2)[C@H](C)CN([C@H](C)CO)C(=O)c2cc(NC(=O)CCC(F)(F)F)ccc2O1`, with “inactive”.
The value for `C[C@@H]1CCCCO[C@@H](CN(C)C(=O)CCC(F)(F)F)[C@H](C)CN([C@@H](C)CO)C(=O)c2cc(NC(=O)Cc3ccccc3)ccc2O1` was “inactive”.
The value for `COC(=O)c1c(OC)cc2c(c1C)Oc1c(Cl)c(O)c(Cl)c(C)c1C(=O)O2` was “inactive”; that for `Cc1[nH]c(=O)[nH]c(=O)c1S(=O)(=O)N1CCC[C@H](C(=O)NCCc2c[nH]c3ccc(F)cc23)C1` was “inactive”.
As to `C[C@H](CO)N1C[C@H](C)[C@H](CN(C)Cc2ccc3c(c2)OCO3)Oc2ccc(NC(=O)CCN3CCOCC3)cc2C1=O`, the cytotoxicity call is “inactive”.
Then `Cc1noc(N)c1C(=O)O`, with “inactive”; and `Cc1noc(C)c1NC(=O)N(C)C[C@H]1OCCCC[C@H](C)Oc2ccc(NC(=O)Cc3ccccc3)cc2C(=O)N([C@@H](C)CO)C[C@@H]1C`, with “inactive”; and `C[C@H](CO)N1C[C@H](C)[C@@H](CN(C)Cc2ccc(C(F)(F)F)cc2)Oc2ccc(NC(=O)Cc3cn(C)c4ccccc34)cc2C1=O`, with “inactive”.
As to `COCC(=O)Nc1ccc2c(c1)OC[C@H](C)N(C(=O)Cc1cccnc1)C[C@H](C)[C@H](OC)CN(C)C2=O`, the cytotoxicity call is “inactive”.
Then `C[C@H]1CNC(=O)[C@@H](CC(=O)N(CCOC(=O)NCCCCCC(=O)NO)Cc2ccccc2)C/C=C/CC[C@H](NC(=O)OC(C)(C)C)C(=O)O1`, with “inactive”.
